Results as given in the supplement of paper PMC10126150.
Sequences with one replicate were seen in a single cluster, so their values are uncertain.

System: ATP
Assay: switch fluorescence ratio, 500 uM ATP over buffer (Cy3 cluster intensity, sum of 5 cycles each) (fold (ratio)); higher = stronger signal-on switching upon ATP binding; sequences stand for … in TCGTCGGCAGCGTCAGATGTGTATAAGAGACAGTTTTTTTTTTTTTTTTTTTTTTTTT…TC
Conditions: aptamer strand: ATP DNA aptamer (quencher-CACCTGGGGGAGTATTGCGGAGGAAGG + anchor), 100 nM annealed; ATP concentration: 500 uM; one replicate
Outline: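 Between each of five buffer/ATP cycles, the flow-cell was stripped with NaOH and re-annealed. Each cycle imaged Cy3-labelled switching-strand clusters, annealed to 100 nM quencher-labelled ATP aptamer on a modified Illumina MiSeq flow-cell, first in selection buffer and then after 15 min with 500 uM ATP at 22 °C. The fluorescence ratio is summed target-cycle over summed buffer-cycle Cy3 intensity per cluster, averaged per switch-domain sequence, with clusters outside 100-1000 RFU excluded.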
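Also: ATP exposure 15 min at 22 °C before imaging.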

Sequence	switch fluorescence ratio
AAAAAAGAGT	0.977
AAAAAAGGA	1.01
AAAAACGGTT	0.968
AAAAACTATA	0.979
AAAAACTGAT	1.19
AAAAAGAGCG	0.923
AAAAAGCGTA	0.987
AAAAAGGGAT	1
AAAAAGGTAG	1.04
AAAACTCCAT	1.01
AAAACTGAAA	0.973
AAAAGACTTT	1.02
AAAAGAGGAG	1.07
AAAAGAGTTT	0.957
AAAAGATCCT	1.19
AAAAGCACCG	1.2
AAAAGGCCCA	0.995
AAAAGTGCCT	1.14
AAAAGTGCT	0.928
AAAAGTGGAG	1.01
AAAATAACAT	0.966
AAAATCAATC	0.996
AAAATGCATG	0.966
AAAATGCGAA	1.08
AAAATGGCT	1.05
AAAATTATA	0.969

Sequence	switch fluorescence ratio
AAAATTATAG	0.975
AAAATTCGGC	0.994
AAACAAATC	0.988
AAACACCCC	1.24
AAACACTCCG	1.2
AAACAGTTCT	1
AAACATGCAA	1.1
AAACATGGGG	1.01
AAACATTCT	1.2
AAACATTCTG	1.04
AAACATTGGT	1.05
AAACATTTTA	1.03
AAACCACTGT	1.02
AAACCCTTCT	1.09
AAACCGGCCT	1.67
AAACCTAAGT	1.02
AAACCTCTTT	0.995
AAACCTGGGG	1.04
AAACCTTCAG	2.03
AAACCTTTAT	1.19
AAACGATTTT	1.02
AAACGCTACT	1.75
AAACGGGAGA	0.983
AAACGGGGCA	0.982
AAACGTACAA	1.37
AAACGTATGG	1

Sequence	switch fluorescence ratio
AAACGTGTT	1.04
AAACTAGTTG	0.928
AAACTCCGAG	1.22
AAACTGACT	1.16
AAACTGGTGC	1.17
AAACTGGTTG	1.01
AAACTGGTTT	1.03
AAACTGTTGG	0.963
AAACTTCAAC	1.07
AAAGAACAAA	0.994
AAAGAAGTGC	1.11
AAAGAATATC	1.04
AAAGAGAAAG	0.959
AAAGAGACAA	1
AAAGAGAGGC	1.01
AAAGAGCCGA	0.954
AAAGAGGAGC	0.996
AAAGATCGCA	1.05
AAAGCCCGCC	1.07
AAAGCCGGGA	1.03
AAAGCCTCCG	2.53
AAAGCGACAG	0.997
AAAGCGGAAC	1.21
AAAGCGGTGA	1.02
AAAGCGTATT	0.96
AAAGCTAAGG	0.99

Sequence	switch fluorescence ratio
AAAGCTCGGT	1.04
AAAGGAAA	0.997
AAAGGAGGAC	1.4
AAAGGCGGA	1.05
AAAGGCGTTC	1.02
AAAGGGCGAG	0.991
AAAGGGTGTA	0.998
AAAGGTGTGG	0.991
AAAGTACATT	1.15
AAAGTATCGC	1.03
AAAGTGCCTG	0.943
AAAGTTCGGT	0.948
AAAGTTCTG	0.978
AAAGTTGTAT	1.01
AAAGTTGTGG	1
AAAGTTTCTT	1.02
AAAGTTTGA	1.01
AAATAAAGGA	1.01
AAATACTGAG	1.09
AAATAGCGTG	0.978
AAATAGGGCC	0.954
AAATATCACC	1.09
AAATATGATA	0.977
AAATATGCGA	1.04
AAATATGGGG	1.04
AAATATTAGG	1.04

Sequence	switch fluorescence ratio
AAATATTTAA	0.963
AAATCAAGTC	1.06
AAATCCAAGG	1.01
AAATCCAGAC	1.05
AAATCGAAT	0.991
AAATCGAATA	1.04
AAATCGGCCA	0.999
AAATCTGGAA	1.04
AAATGATCAA	1.01
AAATGGCATA	0.986
AAATGTAAGT	0.992
AAATGTAGTT	1
AAATGTGGTT	1.01
AAATTAAGTT	0.991
AAATTACCAC	1.1
AAATTATTGC	0.976
AAATTCACGA	1.03
AAATTCAGGT	1.06
AAATTCCATG	1.01
AAATTCGCCC	0.974
AAATTGACCT	1.54
AAATTTCGAG	1
AAATTTTTA	1.01
AACAAAGCGC	1.05
AACAAAGTAT	1.03
AACAACTCCG	1.59

Sequence	switch fluorescence ratio
AACAATCATA	0.997
AACAATTATG	1.01
AACAGATA	1
AACAGATGTC	0.907
AACAGATTTG	0.988
AACAGCAGCA	1.02
AACAGCTCGA	1.04
AACAGGACGG	1.07
AACAGGCGC	0.957
AACAGGGACG	0.993
AACAGGGCG	1.06
AACAGGGGAC	1.4
AACATAAGAA	1.03
AACATACGTA	1.35
AACATAGAGG	1.01
AACATATAAC	1
AACATATAT	1.01
AACATATCTA	1.01
AACATCCGAT	1.06
AACATCGTGG	0.988
AACATCTCAT	0.986
AACATCTTCA	1.02
AACATGCACG	1.09
AACATTACCA	1.15
AACATTTACT	1.02
AACATTTGAA	0.997

Sequence	switch fluorescence ratio
AACCACTCTG	1.05
AACCAGACGG	1.16
AACCAGGAGA	1.08
AACCAGGCAT	0.962
AACCATTTC	1.03
AACCCCAAAT	1.02
AACCCGTTT	0.999
AACCGACACG	1.31
AACCGACTCA	2.06
AACCGCGTTT	1.02
AACCGGCTGG	0.978
AACCGGTCCT	1.15
AACCGTCTGC	1.07
AACCGTGAGG	0.957
AACCGTGCGC	1.18
AACCGTTTCC	2.49
AACCTCTCTA	1.04
AACCTGAATT	1.08
AACCTGGAT	1.31
AACCTGTAGC	1.32
AACCTGTCTT	1.02
AACCTGTGCG	1.08
AACCTGTGCT	1.09
AACGAACTCG	1.14
AACGAATGGG	1.01
AACGAGCAGC	1.04

Sequence	switch fluorescence ratio
AACGATTTCG	1.01
AACGCACGTA	1.2
AACGCACGTG	1.2
AACGCCGCTT	1.26
AACGCGGCTC	1.17
AACGCGTCGC	0.976
AACGCGTTT	1.04
AACGCTAGGA	1.08
AACGCTGTGT	0.983
AACGGATTGC	1.04
AACGGCAAT	2.6
AACGGCACTC	1.67
AACGGCCAAC	1.14
AACGGGAAGT	1.01
AACGGGCCTG	1.01
AACGGGCTGA	0.999
AACGGTCAGC	1
AACGGTCATC	1.01
AACGGTCGAC	0.995
